# In PubChem BioAssay AID1963576 (National Center for Advancing Translational Sciences (NCATS), 2024):
# Screen size: about 46,000 compounds; about 60 (0.1%) were called active. Another 3% or so got no clear call; they are omitted. Calls come from the whole dose curve; as a rule, active = well fitted inhibition curve with a large enough effect; inconclusive = small, poorly fitted or top-dose-only effect; inactive = no such curve, though single readings can be large or run the other way. Some of the results follow.
# Assay: Primary qHTS assay for Inhibitors of ovarian cancer metastasis using an organotypic tumor microenvironment (TME) model.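 For activity change, negative = inhibition: plate controls were DMSO wells for no effect and tomatine positive control wells for full effect.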 Note: nearly all actives have a fitted effect of over 65% in size.
# Conditions: SKOV3ip1-GFP adhesion/invasion on 3D omental model, fluorescence; series mostly up to 45.8 µM; activity change, negative = inhibition: at the top concentration
# Procedure, shortened: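 Adhesion/invasion was scored as fixed GFP-labeled SKOV3ip1 cell counts (488/509 nm), normalized to DMSO and tomatine controls. Cancer cells in serum-free medium, with four compound doses (0.36-46 umol/L), sat 2 hr at RT then 16 hr at 37 C on a 48 hr fibroblast/mesothelial/ECM culture.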
SMILES,"activity change, negative = inhibition",outcome
O=C(CSc1ccccc1)NCc1ccc2c(c1)CCN2C(=O)c1ccc(F)cc1,inactive: 3.07%,–
O=C(Cc1ccccc1)N(Cc1cccnc1)c1nc2ccc(F)cc2s1,–,inactive
Cn1cnc(S(=O)(=O)N2CCC(C(=O)NCc3ccc(Cl)cc3)CC2)c1,inactive: 2.35%,–
COc1ccc(CNC(=O)c2cc3c(=O)n(C)c4ccccc4c3n2C)cc1,inactive: 4.35%,–
COCCNC(=O)c1nn(-c2ccc(Cl)cc2)nc1CO,–,inactive
O=C(COc1ccccc1)Nc1nnc(S(=O)(=O)N2CCCCCC2)s1,inactive: 3.53%,–
Cc1ccccc1-c1nnc(C2CCN(S(=O)(=O)c3ccc(Cl)cc3)CC2)o1,inactive: -21%,–
CCc1ccc(CNC(=O)CCCN2C(=O)c3cccnc3Oc3ccc(Cl)cc32)cc1,inactive: 31.2%,–
O=C(Nc1cccc2cccnc12)c1ccc(F)cc1,inactive: 1.82%,–
CCOC(=O)c1ccc(N2C(=O)c3[nH]nc(-c4ccc(OCC)cc4)c3C2c2ccc(OC)cc2OC)cc1 (configuration not stated),inactive: -7.81%,–
CCc1ccc2oc(-c3ccc(NC(=O)c4cc(OC)c(OC)c(OC)c4)cc3)nc2c1,inactive: -10.4%,–
CCOc1cc(C2CC(=O)Nc3nc(SCc4ccccc4)[nH]c(=O)c32)ccc1O (configuration not stated),inactive: 10.4%,–
CCC(C)NC(=O)c1ccc2c(c1)N(Cc1ccccc1)C(=O)c1ccccc1S2 (configuration not stated),inactive: -8.08%,–
COc1cccc(N2CCN(C(=O)CCc3c(C)nc4c(c3C)c(=O)n(C)c(=O)n4C)CC2)c1,–,inactive
Cc1ccccc1-n1c(SCc2ccc(Cl)cc2)nc2[nH]ncc2c1=O,inactive: -2.84%,–
CCOc1ccc(CNC(=O)C2CCCN(S(=O)(=O)c3ccc4c(ccn4C)c3)C2)cc1 (configuration not stated),inactive: -12.6%,–
CCN(CC)c1cc2c(cc1F)c(=O)c(S(=O)(=O)c1ccc(OC)cc1)cn2CC,inactive: 13.2%,–
CCOC(=O)c1ccccc1NC(=O)N(C(C)C)C1CCN(C(C)=O)CC1,inactive: -7.44%,–
Cc1ccc(-c2nnc(SCc3cccc(C#N)c3)o2)cc1,–,inactive
CCOC(=O)Cn1c(=O)n(-c2ccccc2OC)c2nc(-c3cccc(F)c3)nc(C(N)=O)c21,inactive: -8.3%,–
CC(C)(C)c1ccc(-c2nc(SCCCOc3ccccc3)n3[nH]c(=O)cc3n2)cc1,–,inactive
COc1ccc(-c2c3c(=O)n(C)c(=O)n(C)c3c3c(C)nc4ccccc4n23)cc1,inactive: 0.52%,–
Cn1nnc2c(N3CCN(c4ccccc4Cl)CC3)ncnc21,inactive: -7.42%,–
COc1ccc(-c2nc(CN3CCC(C(=O)NCc4ccccc4)CC3)c(C)o2)cc1OC,inactive: 3.13%,–
O=C(NCCc1ccccc1)c1nnc(Cc2cccc(F)c2)o1,inactive: -12.7%,–
COc1ccc(-c2nc(C)c(CCNS(=O)(=O)c3cc(C)c(C)cc3C)s2)cc1,inactive: -14.7%,–
CN(C)CCNC(=O)c1ccc2c(=O)n3c(nc2c1)CCCCC3,inactive: -9.71%,–
